The assay has as its target full-length recombinant NH-terminal GST tagged human PDE1b enzyme (Homo sapiens, UniProt Q01064). Nature of the assay: PDE1b inhibitory assay (IMAP TR-FRET). It counts as biochemical. The following applies: negative log of half-maximal molar inhibitory concentration; FAM-cAMP 200 nM; reported as bins; read-out: PDE1b (pEC50) (converted).

Each structure is given as a SMILES string.

Take `COc1ccc(Cn2c(=O)n3ncnc3c3ncc(CN4CCSCC4)cc32)cc1` [Example 59, 6-(4-Methoxybenzyl)-8-(thiomorpholinomethyl)pyrido[2,3-e][1,2,4]triazolo[1,5-c]pyrimidin-5(6H)-one]: the EC50 was 1000 to 10000 nM. The value for `COc1ccc(Cn2c(=O)n3ncnc3c3cc(CN4CC(C)OCC4C)cnc32)cc1` (stereo not shown) [Example 41, 9-((2,5-Dimethylmorpholino)methyl)-6-(4-methoxybenzyl)pyrido[3,2-e][1,2,4]triazolo[1,5-c]pyrimidin-5(6H)-one] was < 100 nM; that for `O=c1n(Cc2ccc(Cl)cc2)c2ncc(CN3CCOCC3)cc2c2ncnn12` [Example 24, 6-(4-Chlorobenzyl)-9-(morpholinomethyl)pyrido[3,2-e][1,2,4]triazolo[1,5-c]pyrimidin-5(6H)-one] was 100 to 1000 nM. The same measure for `COc1ccc(Cn2c(=O)n3ncnc3c3nc(Br)cnc32)cc1` [Example 4, 9-Bromo-6-(4-methoxybenzyl)-[1,2,4]triazolo[1,5-c]pteridin-5(6H)-one]: 100 to 1000 nM; for `COc1ccc(Cn2c(=O)n3ncnc3c3cc(CN4CCN(C(=O)C5CCOC5)CC4)cnc32)cc1` (stereo not shown) [Example 71, 6-(4-Methoxybenzyl)-9-((4-(THF-3-carbonyl)piperazin-1-yl)methyl)pyrido[3,2-e][1,2,4]triazolo[1,5-c]pyrimidin-5(6H)-one]: 100 to 1000 nM. The same measure for `COc1ccc(Cn2c(=O)n3ncnc3c3ccc(CN4CCOCC4)nc32)cc1` [Example 21, 6-(4-Methoxybenzyl)-8-(morpholinomethyl)pyrido[3,2-e][1,2,4]triazolo[1,5-c]pyrimidin-5(6H)-one]: 1000 to 10000 nM; for `COc1ccc(Cn2c(=O)n3ncnc3c3cc(CN4CCN(S(C)(=O)=O)CC4)cnc32)cc1` [Example 68, 6-(4-Methoxybenzyl)-9-((4-(methylsulfonyl)piperazin-1-yl)methyl)pyrido[3,2-e][1,2,4]triazolo[1,5-c]pyrimidin-5(6H)-one]: 100 to 1000 nM; for `COc1ccc(Cn2c(=O)n3ncnc3c3cc(C(F)CN4C[C@@H](C)O[C@@H](C)C4)cnc32)cc1` (stereo partly drawn) [Example 86, 9-(2-((2S,6R)-2,6-Dimethylmorpholino)-1-fluoroethyl)-6-(4-methoxybenzyl)pyrido[3,2-e][1,2,4]triazolo[1,5-c]pyrimidin-5(6H)-one]: < 100 nM. For `COc1ccc(Cn2c(=O)n3ncnc3c3ccc(CNc4ccccc4)nc32)cc1` [Example 79, 6-(4-Methoxybenzyl)-8-((phenylamino)methyl)pyrido[3,2-e][1,2,4]triazolo[1,5-c]pyrimidin-5(6H)-one], the EC50 is 100 to 1000 nM. The value for `COc1ccc(Cn2c(=O)n3ncnc3c3cc(CCN)cnc32)cc1` [Example 27, 9-(2-Aminoethyl)-6-(4-methoxybenzyl)pyrido[3,2-e][1,2,4]triazolo[1,5-c]pyrimidin-5(6H)-one] was 1000 to 10000 nM; that for `COc1ccc(Cn2c(=O)n3ncnc3c3cc(-n4nc(C)ccc4=O)cnc32)cc1` [Example 8, 6-(4-Methoxybenzyl)-9-(3-methyl-6-oxopyridazin-1(6H)-yl)pyrido[3,2-e][1,2,4]triazolo[1,5-c]pyrimidin-5(6H)-one] was 100 to 1000 nM; that for `COc1ccc(Cn2c(=O)n3ncnc3c3cc(CN4CCOC(C)(C)C4)cnc32)cc1` [Example 39, 9-((2,2-Dimethylmorpholino)methyl)-6-(4-methoxybenzyl)pyrido[3,2-e][1,2,4]triazolo[1,5-c]pyrimidin-5(6H)-one] was 100 to 1000 nM. The value for `COc1c(F)cc(Cn2c(=O)n3ncnc3c3cc(CN4C[C@@H](C)O[C@@H](C)C4)cnc32)cc1F` [Example 107, 6-(3,5-Difluoro-4-methoxybenzyl)-9-(((2S,6R)-2,6-dimethylmorpholino)methyl)pyrido[3,2-e][1,2,4]triazolo[1,5-c]pyrimidin-5(6H)-one] was 100 to 1000 nM; that for `C[C@@H]1CN(Cc2cnc3c(c2)c2ncnn2c(=O)n3Cc2ccc(F)c(F)c2)C[C@H](C)O1` [Example 118] was 100 to 1000 nM. The same measure for `COc1ccc(Cn2c(=O)n3ncnc3c3cc(CCNC4CCOCC4)cnc32)cc1` [Example 28, 6-(4-Methoxybenzyl)-9-(2-((tetrahydro-2H-pyran-4-yl)amino)ethyl)pyrido[3,2-e][1,2,4]triazolo[1,5-c]pyrimidin-5(6H)-one]: 1000 to 10000 nM; for `C[C@@H]1CN(Cc2cnc3c(c2)c2ncnn2c(=O)n3Cc2cc(F)c(F)cc2F)C[C@H](C)O1` [Example 124, 9-(((2S,6R)-2,6-Dimethylmorpholino)methyl)-6-(2,4,5-trifluorobenzyl)pyrido[3,2-e][1,2,4]triazolo[1,5-c]pyrimidin-5(6H)-one]: 100 to 1000 nM.

For `COc1ccc(Cn2c(=O)n3ncnc3c3cc(N[C@H]4CCCC[C@@H]4N)cnc32)cc1` [Example 10, 9-(((1S,2S)-2-Aminocyclohexyl)amino)-6-(4-methoxybenzyl)pyrido[3,2-e][1,2,4]triazolo[1,5-c]pyrimidin-5(6H)-one], the EC50 was 1000 to 10000 nM. The value for `Cc1ccc(Cn2c(=O)n3ncnc3c3cc(CN4C[C@@H](C)O[C@@H](C)C4)cnc32)c(F)c1` [Example 138, 9-(((2R,6S)-2,6-Dimethylmorpholino)methyl)-6-(2-fluoro-4-methylbenzyl)pyrido[3,2-e][1,2,4]triazolo[1,5-c]pyrimidin-5(6H)-one] was 100 to 1000 nM.

As to `CSc1ccc(Cn2c(=O)n3ncnc3c3cc(CN4C[C@@H](C)O[C@@H](C)C4)cnc32)cc1` [Example 119, 9-(((2S,6R)-2,6-Dimethylmorpholino)methyl)-6-(4-(methylthio)benzyl)pyrido[3,2-e][1,2,4]triazolo[1,5-c]pyrimidin-5(6H)-one], the EC50 was 100 to 1000 nM.

Regarding `C[C@@H]1CN(Cc2cnc3c(c2)c2ncnn2c(=O)n3Cc2cc(F)c(Cl)cc2Cl)C[C@H](C)O1` [Example 143], the EC50 is 1000 to 10000 nM.

Take `C[C@@H]1CN(Cc2cnc3c(c2)c2ncnn2c(=O)n3Cc2ccc(Cl)cc2)C[C@H](C)O1` [Example 26, 6-(4-Chlorobenzyl)-9-(((2S,6R)-2,6-dimethylmorpholino)methyl)pyrido[3,2-e][1,2,4]triazolo[1,5-c]pyrimidin-5(6H)-one]: the EC50 was 100 to 1000 nM. As to `COc1ccc(Cn2c(=O)n3ncnc3c3ccc(CN4CCN(S(C)(=O)=O)CC4)nc32)cc1` [Example 77, 6-(4-Methoxybenzyl)-8-((4-(methylsulfonyl)piperazin-1-yl)methyl)pyrido[3,2-e][1,2,4]triazolo[1,5-c]pyrimidin-5(6H)-one], the EC50 is 100 to 1000 nM. Consider `C[C@@H]1CN(Cc2cnc3c(c2)c2ncnn2c(=O)n3Cc2ccc(F)c(Cl)c2F)C[C@H](C)O1` [Example 140], for which the EC50 is 100 to 1000 nM. The value for `Cc1ccc(Cn2c(=O)n3ncnc3c3cc(CN4C[C@@H](C)O[C@@H](C)C4)cnc32)c(F)c1F` [Example 151, 6-(2,3-Difluoro-4-methylbenzyl)-9-(((2R,6S)-2,6-dimethylmorpholino)methyl)pyrido[3,2-e][1,2,4]triazolo[1,5-c]pyrimidin-5(6H)-one] was 100 to 1000 nM; that for `COc1ccc(Cn2c(=O)n3ncnc3c3ccc(C(OC)OC)nc32)cc1` [Example 3, 8-(Dimethoxymethyl)-6-(4-methoxybenzyl)pyrido[3,2-e][1,2,4]triazolo[1,5-c]pyrimidin-5(6H)-one] was 1000 to 10000 nM; that for `COc1ccc(Cn2c(=O)n3ncnc3c3cc(CN4CCN(C(=O)C(F)(F)F)CC4)cnc32)cc1` [Example 70, 6-(4-Methoxybenzyl)-9-((4-(2,2,2-trifluoroacetyl)piperazin-1-yl)methyl)pyrido[3,2-e][1,2,4]triazolo[1,5-c]pyrimidin-5(6H)-one] was 100 to 1000 nM. The value for `CCC1CN(Cc2cnc3c(c2)c2ncnn2c(=O)n3Cc2ccc(OC)cc2)CCO1` (stereo not shown) [Example 40, 9-((2-Ethylmorpholino)methyl)-6-(4-methoxybenzyl)pyrido[3,2-e][1,2,4]triazolo[1,5-c]pyrimidin-5(6H)-one] was < 100 nM; that for `COc1c(F)c(F)c(Cn2c(=O)n3ncnc3c3cc(CN4C[C@@H](C)O[C@@H](C)C4)cnc32)c(F)c1F` [Example 146, 9-(((2S,6R)-2,6-Dimethylmorpholino)methyl)-6-(2,3,5,6-tetrafluoro-4-methoxybenzyl)pyrido[3,2-e][1,2,4]triazolo[1,5-c]pyrimidin-5(6H)-one] was 100 to 1000 nM.

The record behind these values is patent US9284335B2, “Substituted pyrido[3,2-e][1,2,4]triazolo[1,5-c]pyrimidines, pyrido[2,3-e][1,2,4]triazolo[1,5-c]pyrimidines and/or [1,2,4]triazolo[1,5-c]pteridines for treatment of central nervous system diseases and disorders” (DART NEUROSCIENCE (CAYMAN) LTD., priority 2012, dated 2016).
